Hit rate of the full screen: of about 71,000 compounds, about 1,400 (2%) were called active. Inconclusive results, whose numbers are uncertain, are shown with a selection of clear calls. Calls come from the whole dose curve; as a rule, active = well fitted curve in the direction sought with a large enough effect; inconclusive = small, poorly fitted or top-dose-only effect; inactive = no such curve, though single readings can be large or run the other way. Potencies of inconclusive entries are doubtful fits and often do not repeat.
molecular target: Microtubule-associated protein tau (Homo sapiens) (UniProt P10636); assay: qHTS Assay for Tau Filament Binding; settings: recombinant tau filaments, thioflavin S fluorescence, 15 h, filaments grown with octadecylsulfate alongside compound; series mostly up to 57.1 µM;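 note: actives lower thioflavin S fluorescence by blocking filaments or displacing dye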
How it was run: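 Quantitative HTS: thioflavine S signal from ODS-induced tau filaments, excited at 450 nm, emission 510 nm. Conditions: 1 uM tau, 30 uM ODS, 15 h at 37 C, pH 7.4.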
Potency is the fitted concentration of half-maximal effect.

UniProt P10636, sequence (P10636 whole entry, looked up): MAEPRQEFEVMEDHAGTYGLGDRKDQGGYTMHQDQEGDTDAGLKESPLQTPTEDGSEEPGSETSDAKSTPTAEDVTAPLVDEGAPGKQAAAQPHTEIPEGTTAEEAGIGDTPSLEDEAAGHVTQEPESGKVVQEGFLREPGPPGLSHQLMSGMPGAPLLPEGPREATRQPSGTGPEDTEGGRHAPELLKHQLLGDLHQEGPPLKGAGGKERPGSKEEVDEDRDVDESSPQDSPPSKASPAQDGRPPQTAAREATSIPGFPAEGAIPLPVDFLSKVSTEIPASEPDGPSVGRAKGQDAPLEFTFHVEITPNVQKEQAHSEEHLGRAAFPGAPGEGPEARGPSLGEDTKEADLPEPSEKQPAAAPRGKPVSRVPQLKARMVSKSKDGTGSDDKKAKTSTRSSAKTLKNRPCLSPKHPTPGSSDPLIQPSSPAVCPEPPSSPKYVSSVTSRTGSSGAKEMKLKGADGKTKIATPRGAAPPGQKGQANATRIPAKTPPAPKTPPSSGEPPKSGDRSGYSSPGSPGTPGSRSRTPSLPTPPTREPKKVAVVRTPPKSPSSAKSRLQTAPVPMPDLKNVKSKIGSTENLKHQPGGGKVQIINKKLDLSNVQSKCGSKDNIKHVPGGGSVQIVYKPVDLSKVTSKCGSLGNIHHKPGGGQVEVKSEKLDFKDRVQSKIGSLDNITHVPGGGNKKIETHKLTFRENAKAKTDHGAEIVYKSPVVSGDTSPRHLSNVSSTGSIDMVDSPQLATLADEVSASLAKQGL

Potency, active:
CCc1ccc2oc(-c3cc(N)ccc3O)nc2c1 25.1 µM, CN(C)S(=O)(=O)c1ccc(Nc2ccc(O)c3c2C(=O)c2c([N+](=O)[O-])ccc(O)c2C3=O)cc1 1 µM, COCCn1c(=N)c(C(=O)NCCc2ccc(OC)cc2)cc2c(=O)n3cccc(C)c3nc21 2 µM, COc1ccc(Cc2nnc(NC(=O)Cc3cccs3)s2)cc1 25.1 µM, CCC(=Nc1ccc(N)cc1)C1=C(O)C(C(=O)OC)C(C)(C)CC1=O (stereo not given) 15.8 µM, CCOC(=O)c1ccc(-n2[nH]c(-c3ccccc3)cc2=O)cc1 15.8 µM, Cc1ccc(C23CC4CC(CC(NC(=O)N5CCN(C)CC5)(C4)C2)C3)cc1 15.8 µM, CCCCCCCNS(=O)(=O)c1cccc2c(Cl)cccc12 39.8 µM, CCN1C(=C2C(=O)c3ccccc3C2=O)C=Cc2ccccc21 12.6 µM, CN1C(=O)CSc2ccc(NC(=O)Nc3ccccn3)cc21 10 µM

Potency, inconclusive:
CC(=O)c1c(O)c(C)c(O)c2c1OC1=CC(=O)[C@H](C(C)=O)C(=O)[C@]12C 39.8 µM [decreasing], CC(C)C(=O)Nc1ccccc1N1CCN(C(=O)c2ccccc2)CC1 31.6 µM [decreasing], NS(=O)(=O)c1cc2c(cc1Cl)N[C@@H]([C@@H]1C[C@@H]3C=C[C@H]1C3)NS2(=O)=O 39.8 µM [decreasing], CS(=O)c1ccc(-c2nc(-c3ccc(F)cc3)c(-c3ccncc3)[nH]2)cc1 (stereo not given) 39.8 µM [decreasing], O=C(Nc1ccc2c(c1)OCCO2)c1ccc(S(=O)(=O)N2CCCCC2)cc1 25.1 µM [decreasing], O=S(=O)(Cc1ccc(Cl)cc1)Nc1ccc2c(c1)OCO2 25.1 µM [decreasing], CCOc1ccc(-c2[nH]ncc2Oc2cccc(OC)c2)c(O)c1 25.1 µM [decreasing], C1CCN2C[C@@H]3C[C@@H](CN4CCCC[C@H]34)[C@H]2C1 39.8 µM [decreasing], C[N@@+]1(CC[N@@+]2(C)CCC[C@H]2c2cccnc2)CCC[C@@H]1c1cccnc1 3.16 µM [decreasing], CCOC(=O)c1sc(NC(=O)CSc2n[nH]c(-c3ccccc3)n2)c(C#N)c1C 12.6 µM [decreasing], O=C(CN1CCc2ccccc21)Nc1ccc2c(c1)OCO2 25.1 µM [decreasing], O=S(=O)(NCCCCCCc1ccccc1)c1cccc2c(Cl)cccc12 39.8 µM [decreasing], O=C(/C=C\c1ccc(O)c(O)c1)O[C@H]1C[C@@](O)(C(=O)O)C[C@H](O)[C@@H]1O 39.8 µM [decreasing], c1ccc(Nc2ncnc3ccc(-c4ccoc4)cc23)cc1 31.6 µM [decreasing], CCOc1ccc2nc3sc(C(=O)N4CCN(C)CC4)c(N)c3cc2c1 20 µM [decreasing], CCOc1cccc(C=Nc2cc(C)cc(C)c2O)c1O 31.6 µM [decreasing], COc1ccc(NC(=O)CNCCC2=CCCCC2)cc1 31.6 µM [decreasing], FC(F)(F)c1ccccc1-c1nccc(NCc2ccccc2)n1 39.8 µM [decreasing], COCCn1c(=O)c(-c2cccs2)nc2cnc(Oc3ccc(OC)cc3)nc21 25.1 µM [decreasing], N[C@@H](COP(=O)(O)O)C(=O)O 39.8 µM [decreasing], O=c1c(O)c(-c2ccc(O)c(O)c2)oc2c(OC[C@H]3O[C@@H](O)[C@@H](O)[C@H](O)[C@@H]3O)c(O)cc(O)c12 39.8 µM [decreasing], CCCCC/C=C\C/C=C\CCCCCCCC(=O)O 25.1 µM [decreasing], CCCCCC(=O)O[C@H](CC(=O)O)C[N+](C)(C)C 39.8 µM [decreasing], Nc1nc2ccccc2n1/N=C/c1ccc(-c2ccccc2)o1 25.1 µM [decreasing], CCOC(=O)Cc1nnc(NC(=O)CSc2nnc3c4ccccc4n(C(C)C)c3n2)s1 20 µM [decreasing], CCc1ccc2oc(=O)cc(CN3CCCCC3C)c2c1 (stereo not given) 39.8 µM [decreasing], OC(COc1ccc2c(c1)CCC2)CN1CCN(c2ccccc2F)CC1 (stereo not given) 20 µM [decreasing], CN(C(=O)CCCOc1ccc2[nH]c(=O)ccc2c1)C1CCCCC1 39.8 µM [decreasing]

Potency, inactive:
C=CC(=O)OCC(CO)(COC(=O)C=C)COC(=O)C=C, COCCn1c(=O)c(-c2ccc(F)cc2)nc2cncnc21, COc1ccccc1-c1cncnc1Nc1ccccc1, CC(=O)Oc1c2occc2cc2ccc(=O)oc12, CCCS(=O)(=O)N1CCc2cc(OC)c(OC)cc2C1, Cc1cccc(NC(=O)c2sc3nc(-c4ccccc4)cn3c2C)n1, O=C(Nc1ccc2nc(-c3cccs3)[nH]c2c1)c1cccs1, CCn1c(SCC(=O)Nc2nonc2C)nnc1-c1ccco1, CCCCCCCCCCCC(=O)O, CCc1ccccc1N1CSC2=C(C#N)C(c3ccccc3F)CC(=O)N2C1 (stereo not given), COc1ccc(-c2cc(-c3ccc(OC)cc3)[nH]n2)cc1, CCCCn1nc(NC(=O)c2cccs2)c2cc3cc(OC)ccc3nc21, COc1ccc2c(c1)[C@]1(C)CCC[C@](C)(CO)[C@@H]1CC2, Cc1cnc(CNc2cc(-c3ccccc3C)ncn2)cn1, O=C(c1ccc(Cl)s1)N1CCc2ccccc21, CCOc1ccc2nc(N3CCCCCC3)sc2c1, N#Cc1ccc(CN2CCC3(CC2)CCN(C(=O)c2cccc(F)c2)CC3)cc1

From PubChem BioAssay AID596 (National Center for Advancing Translational Sciences (NCATS), 2007)
